# Assay results: PubChem BioAssay AID1347073 (National Center for Advancing Translational Sciences (NCATS), 2019)
# Screen size: about 45,000 compounds; about 200 (0.44%) were called active. Roughly 7% stayed inconclusive and do not appear here. Calls come from the whole dose curve; as a rule, active = well fitted activation curve with a large enough effect; inconclusive = small, poorly fitted or top-dose-only effect; inactive = no such curve, though single readings can be large or run the other way. The list shows a part of the results.
# Test: qHTS of TDP-43 Inhibitors: NCGC Sytravon Library Screen; note: 0% is about no effect; nearly all actives have a fitted effect of over 55% in size
# Settings: yeast TDP-43 toxicity rescue, BacTiter-Glo growth, 24 h; series mostly up to 46.1 µM; growth rescue (activation): at the top concentration
# Outline: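 TDP-43-expressing yeast, pregrown in raffinose, seeded at OD600 0.02 in galactose medium with compound for 24 hr at 30 deg C. Growth read by BacTiter-Glo luminescence, so rescue of toxicity appears as activation.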
row,Structure (SMILES),growth rescue (activation)
1,COc1ccccc1C(=O)NC(C)c1ccccc1 (stereo not drawn),inactive: 8.94%
2,Cc1ccc(C(=O)N/C(=C/c2ccco2)C(=O)NC2CCS(=O)(=O)C2)cc1 (stereo not drawn),inactive: 11.4%
3,COc1ccccc1CC(=O)NN1C(=O)c2ccccc2C1=O,inactive: 0.713%
4,CCOC(=O)CCCCC(=O)c1[nH]c(=O)[nH]c1CSc1nnc2c3ccccc3n(C(C)C)c2n1,inactive: 22.7%
5,O=C(COC(=O)/C=C/c1ccc(Br)o1)NCCCN1CCCC1=O,inactive: 16.3%
6,O=C(COC(=O)C1CCCO1)Nc1nc(-c2ccc(F)cc2)cs1 (stereo not drawn),inactive: 9.95%
7,Cc1cc(C)c(O)c(-c2cc(C(=O)NCCc3ccc(S(N)(=O)=O)cc3)[nH]n2)c1,inactive: 31.8%
8,O=C(Nc1ccc(F)cc1)C1CCN(S(=O)(=O)c2cccc3nonc23)CC1,inactive: 6.3%
9,COc1ccc2c(c1)c1nnc(SCC(=O)NC3CC3)nc1n2C,inactive: -4.18%
10,CC1CC(C)CN(C(=O)CSc2nnc(-c3ccco3)o2)C1 (stereo not drawn),inactive: 18.9%
11,CCCNC(=O)C1(C)CCN1C(=O)c1ccc(C(C)(C)C)cc1 (stereo not drawn),inactive: 7.63%
12,Cc1cc(/C=C2\NC(=S)N(C)C2=O)ccc1N1CCCC1,inactive: 13%
13,COc1ccc(C(=O)NC(=S)N(CCC(C)C)c2c(N)n(Cc3ccccc3)c(=O)[nH]c2=O)cc1,inactive: 14.2%
14,Cc1cccc(C(=O)NCc2ccc(S(N)(=O)=O)cc2)c1[N+](=O)[O-],inactive: -6.29%
15,CN(CC(=O)Nc1ccc(N2CCOCC2)cc1)C(=O)C1CCCC1,inactive: -3.43%
16,O=C1NCCN1CCNS(=O)(=O)c1ccc(F)cc1,inactive: -6.52%
17,CCOC(=O)c1ccc(NC(=O)/C=C/c2cccs2)cc1,inactive: 7.02%
18,CCNC(=O)C1(C)CCN(C(=O)c2ccc(OC(F)F)cc2)C1 (stereo not drawn),inactive: -18.6%
19,O=C(Nc1scc(-c2ccccc2)c1C(=O)O)c1ccccc1Cl,inactive: -13%
20,Cc1cccc(OCCC(=O)NCC(=O)Nc2cccc(C)c2C)c1,inactive: 17.5%
21,CC1=[N+](CC(=O)c2ccccc2)CCn2cccc21,inactive: 2.27%
22,Oc1ccc(O)c(Cc2nc3ccccc3[nH]2)c1,inactive: 2.58%
23,CCc1ccc(C(O)c2ncc(-c3cccc(C)c3)[nH]2)cc1 (stereo not drawn),inactive: 10.7%

row,Structure (SMILES),growth rescue (activation)
1,CS(=O)(=O)c1ccc(C(=O)NCCN2C(=O)S/C(=C\c3cccnc3)C2=O)cc1[N+](=O)[O-],inactive: 3.72%
2,CC(=O)Nc1ccc(S(=O)(=O)NNC(=O)CCc2ccccc2)cc1,inactive: 12.5%
3,O=C(NCc1ccco1)C1CCN(c2ccc(S(=O)(=O)N3CCOCC3)cc2[N+](=O)[O-])CC1,inactive: 1.13%
4,Cc1cc(C)c(C(=O)Cn2nc(C(=O)O)c3ccccc3c2=O)cc1C,inactive: 22.8%
5,O=C(N/N=C/c1cccc(Cl)c1)c1c(O)c2c([nH]c1=O)CCCC2,inactive: 8.16%
6,O=C(CCNS(=O)(=O)c1c(Cl)cccc1Cl)OCC(=O)c1ccccc1F,inactive: -1.06%
7,Cc1ccn2cc(C34CC5CC(CC(C5)C3)C4)nc2c1,inactive: 5.9%
8,Cc1ccccc1/C=C/c1nc2ccccc2c(=O)[nH]1,inactive: 1.99%
9,CN(C(=O)CS(=O)(=O)Cc1ccccc1Cl)c1ccccc1,inactive: 17.3%
10,O=C(CC12CC3CC(CC(C3)C1)C2)Nc1ccccc1N1CCOCC1,inactive: 8.1%
11,COc1ccc(CCN(C)Cc2c(O)ccc3cc(Br)ccc23)cc1OC,inactive: 9.83%
12,c1ccc(-c2noc(-c3ccc4c(c3)OCO4)n2)cc1,inactive: 0.714%
13,CCOc1cc(/C=N/N=C2/NC(=O)C(CC(=O)O)S2)ccc1OS(=O)(=O)c1ccc(C)cc1 (stereo not drawn),inactive: 14.2%
14,CC(C)(C)NC(=O)COc1ccccc1C#N,inactive: 0.0885%
15,CCc1ccc(S(=O)(=O)c2ccc(-n3nc(C)cc3N)cc2)cc1,inactive: -5.33%
16,Cc1cccc(OCC(=O)NCCCNC(=O)c2ccco2)c1,inactive: -3.48%
17,Cc1cccnc1C(NC(=O)C1CCN(Cc2cn(C)c3ccccc23)CC1)c1ccc(Cl)cc1 (stereo not drawn),inactive: 3.99%
18,Cn1c(COc2ccccc2)nnc1SCC(=O)NC1CCCC1,inactive: 1.05%
19,CCC(C(=O)NCC1CCCO1)N(Cc1ccc(F)cc1)C(=O)CNS(=O)(=O)c1ccccc1 (stereo not drawn),inactive: 9.24%
20,CC(C)CNC(=O)C1CCCN(C(=O)NCc2ccccc2)C1 (stereo not drawn),inactive: -3.4%
21,COc1ccc(/C=N/NC(=O)c2snnc2C)c(OC)c1OC,inactive: 6.89%
22,CCOc1ccc(-c2n[nH]c(=S)c3ccccc23)cc1,inactive: 5.35%
23,CC(C)n1cnc2cc(NC(=O)c3ccco3)ccc21,inactive: -19.9%

row,Structure (SMILES),growth rescue (activation)
1,COc1ccccc1Cn1c(-c2ccco2)nc2nc3ccccc3nc21,inactive: 31.1%
2,CC(C)/C=C1\CCc2c([nH]c3ccccc23)C1=O,inactive: 23.2%
3,COc1ccc(NC(C)=O)cc1S(=O)(=O)NC1CCSc2ccccc21 (stereo not drawn),inactive: 0.135%
4,CN1c2ccccc2C2(C)CCCC3=Cc4cc([N+](=O)[O-])cc([N+](=O)[O-])c4OC312 (stereo not drawn),inactive: -8.2%
5,O=C(COC(=O)/C=C/c1cccc(F)c1)NNC(=O)c1ccccc1,inactive: -0.206%
6,CCc1nc2ccc(C(=O)N3CCN(S(=O)(=O)CC)CC3)cn2c1N(C)C(=O)c1cccc(OC)c1,inactive: -10%
7,CN(CCc1ccccn1)C(=O)CCC1CCCN(C(=O)c2n[nH]c3c2CCCC3)C1 (stereo not drawn),inactive: 4.02%
8,Cc1ccc(N=Cc2c(C)[nH]n(-c3nc4ccccc4[nH]3)c2=O)cc1,inactive: -83.8%
9,CCn1cc(C(=O)NCC(C)C)c(=O)c2cc(F)c(N3CCN(C(=O)c4ccco4)CC3)cc21,inactive: 11.4%
10,CCc1cc(C(=O)OC)c(NC(=O)CC2SC(N)=NC2=O)s1 (stereo not drawn),inactive: -4.99%
11,Cc1ccc(NC(=S)N(CCN(C)C)C(C)c2ccco2)cc1C (stereo not drawn),inactive: 3.15%
12,CCOc1ccc(N2C(=O)S/C(=C\c3cc(OC)c(OC)c(OC)c3)C2=O)cc1,inactive: 4.14%
13,c1ccc(Nc2nc(-c3cccnc3)cs2)nc1,inactive: 13.7%
14,O=C(O)c1ccccc1-c1ccc(/C=C/c2cc(C(F)(F)F)[nH]c(=O)n2)o1,inactive: 9.74%
15,COc1ccc(C(=O)C2CCCN(C(=O)Cn3ccc(C)n3)C2)cc1OC (stereo not drawn),inactive: 16.6%
16,Cn1c(N)c(C(=O)COC(=O)c2cccs2)c(=O)n(C)c1=O,inactive: -8.15%
17,COc1cccc(N=C2NC(=O)/C(=C/c3cc([N+](=O)[O-])ccc3O)S2)c1,inactive: -2.77%
18,CC(CCc1ccccc1)NC(=O)c1ccc(NC(=O)c2ccccc2)cc1 (stereo not drawn),inactive: -1.35%
19,CSc1ccc(CN(C)C(C)C(=O)NCC2CCCCC2)cc1 (stereo not drawn),inactive: -6.95%
20,O=C(COC(=O)CNC(=O)c1ccc(Cl)cc1Cl)Nc1ccc(N2CCOCC2)cc1,inactive: 0.839%
21,Cc1noc(C(=O)Nc2cccnc2Cl)c1Cl,inactive: 4.8%
22,CCOC(=O)c1cc(C)sc1NC(=O)CSc1nnnn1C,inactive: -8.28%
